In all, about 39,000 compounds went through this assay and about 220 (0.56%) showed activity. The list shows a part of the results.
The molecules below were run on Escherichia coli K-12 BW25113 (assay: relative growth (OD600 normalised to plate interquartile mean) (fraction); higher = less growth inhibition, active = 0.2 or less). Conditions: 50 µM; LB; incubation time: overnight (16-24 h).
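Note: static incubation at 37 °C against the wild-type strain, values averaged over two biological replicates.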

SMILES	relative growth
C[C@H]1CN([C@@H](C)CO)C(=O)c2c(c3ccccc3n2C)-c2ccccc2CO[C@H]1CN(C)C(=O)NC1CCCCC1	inactive: 1.01
CCCN1C[C@H](C)[C@H](OC)CN(C)C(=O)c2ccc(NS(=O)(=O)c3cn(C)cn3)cc2OC[C@H]1C	inactive: 1.01
C[C@H](CO)N1C[C@H](C)[C@H](CN(C)Cc2ccc(Oc3ccccc3)cc2)Oc2c(NC(=O)c3ccncc3)cccc2C1=O	inactive: 1
C[C@H](CO)N1C[C@H](C)[C@@H](CN(C)Cc2ccc(C(F)(F)F)cc2)Oc2ccc(NC(=O)Cc3cn(C)c4ccccc34)cc2C1=O	inactive: 1.06
COCC#Cc1ccc2c(c1)O[C@H](CN(C)S(=O)(=O)c1cccc(OC)c1)[C@@H](C)CN([C@@H](C)CO)S2(=O)=O	inactive: 1.02
CC(=C(CCOP(=O)(O)O)SC(=O)c1ccccc1)N(C=O)Cc1cnc(C)nc1N	inactive: 1.1
OCc1ccc2c(c1)NCCO2	inactive: 1.02
C[C@H](CO)N1C[C@H](C)[C@@H](CN(C)C)OCCCC[C@H](C)Oc2ccc(NC(=O)Nc3cccc4ccccc34)cc2C1=O	inactive: 1.02
COc1ccc(C#Cc2ccc3c(c2)O[C@@H](CN(C)S(=O)(=O)c2ccccc2F)[C@@H](C)CN([C@H](C)CO)S3(=O)=O)cc1	inactive: 0.956
C[C@@H]1CN([C@@H](C)CO)C(=O)Cc2cc(NC(=O)CCC(F)(F)F)ccc2O[C@H]1CN(C)Cc1ccc(-c2ccccc2)cc1	inactive: 1.03
N#CCC(=O)NN	inactive: 1.08
C[C@@H]1CN([C@H](C)CO)C(=O)c2cc(NC(=O)c3ccncc3)ccc2O[C@@H](C)CCCCO[C@@H]1CN(C)C(=O)Nc1cccc2ccccc12	inactive: 0.995
Cc1ccc(S(=O)(=O)N(C)C[C@H]2Oc3c(NC(=O)c4ccncc4)cccc3C(=O)N([C@@H](C)CO)C[C@H]2C)cc1	inactive: 1.01
C[C@@H]1CN([C@H](C)CO)C(=O)c2cccc(NC(=O)Nc3ccc(C(F)(F)F)cc3)c2O[C@H]1CN(C)Cc1ccc(C(=O)Nc2ccccc2N)cc1	inactive: 0.988
CC[C@H](C(=O)O)N1CCCC1	inactive: 1.01
CN(C)CC(=O)N[C@@H]1CC[C@@H](CC(=O)O)O[C@@H]1CO	inactive: 0.983
COc1ccccc1-c1ccc2c(c1)O[C@@H](CN(C)C(=O)c1cccnc1)[C@@H](C)CN([C@@H](C)CO)S2(=O)=O	inactive: 1
C[C@@H]1CCCCO[C@H](CN(C)S(=O)(=O)c2ccc(Cl)cc2)[C@@H](C)CN([C@@H](C)CO)C(=O)c2cc(NS(=O)(=O)c3ccc(F)cc3)ccc2O1	inactive: 1.02
Cc1ccc(S(=O)(=O)Nc2ccc3c(c2)C(=O)N([C@@H](C)CO)C[C@H](C)[C@@H](CN(C)C(=O)Nc2cccc4ccccc24)OCCCC[C@H](C)O3)cc1	inactive: 1

SMILES	relative growth
O=C(C[C@H]1C=C[C@@H](NS(=O)(=O)c2ccc(F)cc2)[C@H](CO)O1)N1CCC(Cc2ccccc2)CC1	inactive: 0.927
C[C@@H]1CCCCO[C@@H](CN(C)Cc2ccc(Cl)c(Cl)c2)[C@H](C)CN([C@@H](C)CO)C(=O)c2cc(NC(=O)Nc3ccc(F)cc3)ccc2O1	inactive: 1.02
C[C@@H]1CN([C@@H](C)CO)C(=O)c2cc(NC(=O)CCN3CCOCC3)ccc2O[C@H]1CN(C)Cc1ccc2c(c1)OCO2	inactive: 1.01
O=C(C[C@@H]1CC=CCCC(=O)OC[C@H](Cc2c[nH]c3ccccc23)NC1=O)N[C@@H](CO)Cc1ccccc1	inactive: 0.993
C[C@H]1CN([C@@H](C)CO)C(=O)Cc2cc(NS(=O)(=O)c3ccccc3)ccc2O[C@H]1CN(C)Cc1ccc(C(=O)O)cc1	inactive: 0.924
Nc1no[n+]([O-])c1-c1ccccc1	inactive: 0.939
Cc1ccc(S(=O)(=O)N(C)C[C@H]2Oc3c(NC(=O)NC(C)C)cccc3C(=O)N([C@H](C)CO)C[C@@H]2C)cc1	inactive: 0.992
Cc1noc(C)c1NC(=O)N(C)C[C@H]1Oc2c(NS(C)(=O)=O)cccc2C(=O)N([C@H](C)CO)C[C@H]1C	inactive: 0.99
C[C@H]1CN([C@@H](C)CO)C(=O)c2cccc(NC(=O)Nc3ccc4c(c3)OCO4)c2O[C@H]1CN(C)Cc1ccc(C(F)(F)F)cc1	inactive: 0.908
COc1ccc(S(=O)(=O)N2C[C@@H](O)COC[C@H]3O[C@H](CC(=O)N[C@@H]4CCN(Cc5ccccc5)C4)CC[C@@H]32)cc1	inactive: 0.97
CN(C)C(=O)CN1CCn2cc(Cn3cncn3)nc2C1	inactive: 1
C[C@@H]1CCCCO[C@@H](CN(C)C(=O)C2CCCCC2)[C@@H](C)CN([C@@H](C)CO)C(=O)c2cc(NC(=O)NC3CCCCC3)ccc2O1	inactive: 0.987
COc1ccc(NC(=O)N(C)C[C@H]2Oc3ccc(NC(=O)Nc4ccc(C(F)(F)F)cc4)cc3CC(=O)N([C@@H](C)CO)C[C@H]2C)cc1	inactive: 1.04
C[C@@H]1CN([C@@H](C)CO)C(=O)c2c(c3ccccc3n2C)-c2ccccc2CO[C@@H]1CN(C)Cc1cccc(C(=O)O)c1	inactive: 0.999
C[C@@H]1CN([C@H](C)CO)C(=O)c2cc(NS(C)(=O)=O)ccc2O[C@@H](C)CCCCO[C@H]1CN(C)S(=O)(=O)c1cccs1	inactive: 0.967
C[C@@H]1CN([C@@H](C)CO)C(=O)Cc2cc(NS(=O)(=O)c3ccc(F)cc3)ccc2O[C@H]1CN(C)C(=O)Nc1cccc2ccccc12	inactive: 1.01
C[C@@H]1CCCCO[C@H](CN(C)C(=O)NC2CCCCC2)[C@@H](C)CN([C@H](C)CO)C(=O)c2cc(NC(=O)Nc3ccc4c(c3)OCO4)ccc2O1	inactive: 1.04
C[C@@H]1CN([C@@H](C)CO)C(=O)Cc2cc(NC(=O)Nc3cccc4ccccc34)ccc2O[C@@H]1CN(C)Cc1ccc(Cl)c(Cl)c1	inactive: 1.05
Cc1noc(C)c1NC(=O)N(C)C[C@@H]1Oc2c(NS(=O)(=O)c3c(C)noc3C)cccc2C(=O)N([C@@H](C)CO)C[C@@H]1C	inactive: 0.884
